From the RNAGym collection of RNA variant scans (doi:10.1073/pnas.2313332121)
Variants at the background level are over-represented here.

B1: TPR 5TU (parent)
chain: GGAUCUUCUCGAUCUAACAAAAAAGACAAAUCUGCCACAAAGCUUGAGAGCAUCUUCGGAUGCAGAGGCGGCAGCCUUCGGUGGCGCGAUAGCGCCAACGUUCUCAACUAUGACACGCAAAACGCGUGCUCCGUUGAAUGGAGUUUAUCAUG

Variants of: B1
Experiment: polymerase ribozyme fitness, log enrichment relative to wild type (log ratio); higher = more active; in vitro selection for triplet polymerase activity
Method in brief: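 The heterodimeric triplet polymerase ribozyme's subunits were each mutagenized into PCR-built libraries and transcribed. Every library was selected once, in triplicate, by annealing with a biotinylated primer, the partner subunit and triplets, incubating frozen at −7 °C, gel-excising extended constructs, capturing on streptavidin beads and running RT-PCR. Input and output libraries were Illumina-sequenced, with genotypes kept only at ≥10 input reads and ≥1 read per output. Fitness, from inverse-variance-weighted replicate averages, is the base-2 logarithm of genotype enrichment over wild-type enrichment.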

Variant | polymerase ribozyme fitness (log ratio)
U53A U102G | ≤ -4.2
A52U G65C C76U U78G C87A C103G U135A G140A | ≤ -4.2
U53G G117C A137G | -2.86
A52U C93U A119U G124U | -3.24
U53A C76G G92U U127A G136U | ≤ -4.2
C54U A110C C114U A121U | -4.15
A52C G67A A137U A138G A142G | ≤ -4.2
C54G | -1.45
C54A | -1.06
C54U | -0.314
C54A A115C G141C | ≤ -4.2
A52G C57A G83U A91G C95A | -4.15
C54U C79U C87G A89U A107U G124C | ≤ -4.2
U53A C69A U82A A119G | ≤ -4.2
U53A C75U C96A C103G | ≤ -4.2
C54G U61C G84U C87U G88A A119U | ≤ -4.2
A52U G67A C93A | ≤ -4.2
A52C A122G | -1.4
C54G C57U C75A A97U G141C U145G | ≤ -4.2
A52U C72U G86C U148A | ≤ -4.2
A52C C87A G92C G141A | ≤ -4.2

Variant | polymerase ribozyme fitness (log ratio)
U53A C85A G124U G143C U146C | ≤ -4.2
C54A C75G G88C U109C A147C | ≤ -4.2
U53A U56G C57U A73G C87A G143A | ≤ -4.2
C54A U90A C103G A122U | ≤ -4.2
A52U C87U C103U | -2.81
C54U A115G | -3.13
U53G G94C A122G C131A | ≤ -4.2
U53A A147G | -3.69
A52C C99U | -1.81
A52C C99G | -4.11
A52G U53A C54U C93G G112U | ≤ -4.2
A52G C57A G94U G117U A121C C131G | ≤ -4.2
C54A U78G C95A U127A G140C | ≤ -4.2
U53A G80C G143U | ≤ -4.2
C54U A64C U90G U139G G140A | ≤ -4.2
C54A C96G | -1.71
A52U U56A C87A A120U G141C | ≤ -4.2
A52G G58U C75A U148C | ≤ -4.2
C54A G65A C103G A115G | ≤ -4.2
A52C G58U G65U C69A G80C C103A C108G | ≤ -4.2
A52G U90C A91U U127G U145A G152U | ≤ -4.2

Variant | polymerase ribozyme fitness (log ratio)
C54A C95U A106C U127G A137C A142G | ≤ -4.2
U53A U55A A64U C85U A113U A120U C125G A138C | ≤ -4.2
A52G C85U G86U C118G U144C C149G | ≤ -4.2
A52C A73G C85A | -3.88
C54A A64U C76G A91C | ≤ -4.2
A52G C75A G84U A110U | ≤ -4.2
A52U U53A C57A G86A | -1.31
A52C G68A G94C C99U C108G A120C G143C | ≤ -4.2
A52G U56C C93A | -2.44
C54U C57A G143C U144C G152U | ≤ -4.2
A52C C54A C93A C105G C131G | ≤ -4.2
A52U U53G U61A A91G U130G U144G | ≤ -4.2
U53G C87G A91G A113C U127C | ≤ -4.2
A52C U109G A138C | ≤ -4.2
U53A C93U U148C | ≤ -4.2
U53G C125A C149G | ≤ -4.2
U53A C93A C99U G141U | ≤ -4.2
U53G A113U | -3.16
C54U C79A G83U | ≤ -4.2
A52C C54A A89G G117A | -3.55
C54G C96G G126A | -2.33

Variant | polymerase ribozyme fitness (log ratio)
U53A A107U | -2.93
C54G A66C G70C G100C | ≤ -4.2
A52G U55A C75G G84A A120U A142U | ≤ -4.2
C54A C85A C105A | ≤ -4.2
A52C C57A G81A G140U | ≤ -4.2
U53A C79A A150U | ≤ -4.2
U53A G94A C125A U139C A142C | ≤ -4.2
U53C C132G | ≤ -4.2
U53G C93G | ≤ -4.2
C54G G83U C108U A115G G143A | ≤ -4.2
C54A C85U | -1.86
A52G G86A G94U C96U | ≤ -4.2
C54G G65A G86C G117U | ≤ -4.2
A52G A107C | -3.09
A52G A107U | -3.56
U53A A98U | -1.39
A52C C85A G117A C132A | ≤ -4.2
U53G G58C U82G A138C U151A | ≤ -4.2
C54G G59C G84U U148G | ≤ -4.2
A52G U53A U55G G83U A113U C125U | ≤ -4.2
U53A C57A C69G A91C | ≤ -4.2
